Our source for the MIC values is the supplement of paper PMC6657886.

Broadly, the MIC is the lowest concentration that inhibits growth of the organism.

MIC of clinical N. gonorrhoeae isolates (2015-2017) by agar dilution on GC agar with 1% IsoVitaleX (ranges not stated); higher = less susceptible. No active / inactive call per row; the paper counts benzylpenicillin above 1 and ceftriaxone above 0.125 mg/L as resistant (EUCAST). The method is stated for benzylpenicillin and ceftriaxone and assumed for the other drugs. '<=' is inferred from pile-ups at the end values. Isolates are numbered anew. Bounds are passed on as bounds.

What all share (test): Agar dilution on enriched GC agar; resistance determinants by microarray.
Background: In agar dilution the substance is mixed into plates at graded concentrations.

Compound in one assay: CC1(C)S[C@@H]2[C@H](NC(=O)Cc3ccccc3)C(=O)N2[C@H]1C(=O)O [benzylpenicillin]
Compound in another assay: CN(C)[C@@H]1C(O)=C(C(N)=O)C(=O)[C@@]2(O)C(O)=C3C(=O)c4c(O)cccc4[C@@](C)(O)[C@H]3C[C@@H]12 [tetracycline]
Compound in the next assay: CN[C@@H]1[C@H](O)[C@H](NC)[C@H]2O[C@@]3(O)C(=O)C[C@@H](C)O[C@H]3O[C@@H]2[C@H]1O [spectinomycin]
Compound in a further assay: CC[C@H]1OC(=O)[C@H](C)[C@@H](O[C@H]2C[C@@](C)(OC)[C@@H](O)[C@H](C)O2)[C@H](C)[C@@H](O[C@@H]2O[C@H](C)C[C@H](N(C)C)[C@H]2O)[C@](C)(O)C[C@@H](C)CN(C)[C@H](C)[C@@H](O)[C@]1(C)O [azithromycin]
Compound in a further assay: CO/N=C(\C(=O)N[C@@H]1C(=O)N2C(C(=O)O)=C(CSc3nc(=O)c(O)nn3C)CS[C@H]12)c1csc(N)n1 [ceftriaxone]

For “Neisseria gonorrhoeae isolate 367 (blaTEM plasmid: yes, gyrA: wild type, mtrR promoter: wild type, parC: Asn 87, Lys91, penA: ins345Asp, ponA: Pro421, porB: wild type, rpsJ: Met57, tetM plasmid: yes)”, the minimal inhibitory concentration (MIC) was 16 µg/mL in the assay with benzylpenicillin; 32 µg/mL with tetracycline; 32 µg/mL in the assay with spectinomycin; 0.12 µg/mL with azithromycin; 0.004 µg/mL with ceftriaxone.
In the case of “Neisseria gonorrhoeae isolate 10 (blaTEM plasmid: no, gyrA: wild type, mtrR promoter: wild type, parC: wild type, penA: ins345Asp, ponA: wild type, porB: wild type, rpsJ: wild type, tetM plasmid: no)”, the minimal inhibitory concentration (MIC) in the assay with benzylpenicillin is ≤ 0.015 µg/mL; with tetracycline, 0.06 µg/mL; with spectinomycin, 8 µg/mL; with azithromycin, 0.06 µg/mL; with ceftriaxone, ≤ 0.002 µg/mL.
Consider “Neisseria gonorrhoeae isolate 38 (blaTEM plasmid: no, gyrA: wild type, mtrR promoter: wild type, parC: wild type, penA: wild type, ponA: wild type, porB: wild type, rpsJ: wild type, tetM plasmid: no)”, for which the minimal inhibitory concentration (MIC) with benzylpenicillin is ≤ 0.015 µg/mL; in the assay with tetracycline, 0.25 µg/mL; with spectinomycin it was 32 µg/mL; with azithromycin, 0.015 µg/mL; with ceftriaxone, ≤ 0.002 µg/mL.
In the case of “Neisseria gonorrhoeae isolate 215 (blaTEM plasmid: no, gyrA: wild type, mtrR promoter: wild type, parC: wild type, penA: ins345Asp, ponA: wild type, porB: wild type, rpsJ: wild type, tetM plasmid: no)”, the MIC with benzylpenicillin came out at 0.12 µg/mL; in the assay with tetracycline, 0.25 µg/mL; with spectinomycin, 16 µg/mL; in the assay with azithromycin it was 0.12 µg/mL; with ceftriaxone, 0.008 µg/mL.
Regarding “Neisseria gonorrhoeae isolate 253 (blaTEM plasmid: no, gyrA: Phe91, Asn95, mtrR promoter: wild type, parC: Arg87, Glu91, penA: ins345Asp, ponA: Pro421, porB: wild type, rpsJ: Met57, tetM plasmid: no)”, the MIC with benzylpenicillin was 1 µg/mL; in the assay with tetracycline, 0.5 µg/mL; with spectinomycin, 16 µg/mL; in the assay with azithromycin, 0.06 µg/mL; with ceftriaxone, ≤ 0.002 µg/mL.
As to “Neisseria gonorrhoeae isolate 406 (blaTEM plasmid: no, gyrA: wild type, mtrR promoter: wild type, parC: wild type, penA: ins345Asp, ponA: Pro421, porB: wild type, rpsJ: Met57, tetM plasmid: no)”, the MIC in the assay with benzylpenicillin was 0.06 µg/mL; with tetracycline, 0.5 µg/mL; with spectinomycin, 8 µg/mL; with azithromycin, 0.06 µg/mL; in the assay with ceftriaxone, ≤ 0.002 µg/mL.
As to “Neisseria gonorrhoeae isolate 429 (blaTEM plasmid: no, gyrA: wild type, mtrR promoter: wild type, parC: wild type, penA: wild type, ponA: wild type, porB: wild type, rpsJ: wild type, tetM plasmid: no)”, the minimal inhibitory concentration (MIC) is ≤ 0.015 µg/mL with benzylpenicillin; 0.06 µg/mL with tetracycline; 16 µg/mL with spectinomycin; 0.12 µg/mL in the assay with azithromycin; ≤ 0.002 µg/mL with ceftriaxone.
Regarding “Neisseria gonorrhoeae isolate 229 (blaTEM plasmid: no, gyrA: wild type, mtrR promoter: wild type, parC: wild type, penA: wild type, ponA: wild type, porB: wild type, rpsJ: wild type, tetM plasmid: no)”, the minimum inhibitory concentration (MIC) was ≤ 0.015 µg/mL in the assay with benzylpenicillin; 0.12 µg/mL with tetracycline; 16 µg/mL in the assay with spectinomycin; 0.06 µg/mL with azithromycin; ≤ 0.002 µg/mL in the assay with ceftriaxone.
The matching figures for “Neisseria gonorrhoeae isolate 77 (blaTEM plasmid: no, gyrA: wild type, mtrR promoter: wild type, parC: wild type, penA: wild type, ponA: wild type, porB: wild type, rpsJ: wild type, tetM plasmid: no)”: ≤ 0.015 µg/mL, 0.12 µg/mL, 16 µg/mL, 0.06 µg/mL and ≤ 0.002 µg/mL.
As to “Neisseria gonorrhoeae isolate 152 (blaTEM plasmid: no, gyrA: Thr91, Gly95, mtrR promoter: wild type, parC: wild type, penA: ins345Asp, ponA: wild type, porB: wild type, rpsJ: wild type, tetM plasmid: no)”, the MIC in the assay with benzylpenicillin is 0.12 µg/mL; with tetracycline, 0.12 µg/mL; in the assay with spectinomycin, 8 µg/mL; in the assay with azithromycin it was 0.06 µg/mL; in the assay with ceftriaxone, ≤ 0.002 µg/mL.
With “Neisseria gonorrhoeae isolate 286 (blaTEM plasmid: no, gyrA: wild type, mtrR promoter: wild type, parC: wild type, penA: ins345Asp, ponA: wild type, porB: wild type, rpsJ: Met57, tetM plasmid: no)”, the minimum inhibitory concentration (MIC) with benzylpenicillin was 0.12 µg/mL; with tetracycline it was 2 µg/mL; in the assay with spectinomycin, 32 µg/mL; with azithromycin, 0.5 µg/mL; in the assay with ceftriaxone, ≤ 0.002 µg/mL.
In the case of “Neisseria gonorrhoeae isolate 413 (blaTEM plasmid: no, gyrA: wild type, mtrR promoter: -35delA, parC: wild type, penA: wild type, ponA: wild type, porB: wild type, rpsJ: wild type, tetM plasmid: no)”, the minimum inhibitory concentration (MIC) worked out at 0.03 µg/mL with benzylpenicillin; 0.25 µg/mL in the assay with tetracycline; 16 µg/mL in the assay with spectinomycin; 0.12 µg/mL in the assay with azithromycin; 0.004 µg/mL with ceftriaxone.
For the test system “Neisseria gonorrhoeae isolate 325 (blaTEM plasmid: no, gyrA: wild type, mtrR promoter: wild type, parC: wild type, penA: wild type, ponA: wild type, porB: wild type, rpsJ: wild type, tetM plasmid: no)”, the minimal inhibitory concentration (MIC) with benzylpenicillin is ≤ 0.015 µg/mL; with tetracycline, 0.5 µg/mL; with spectinomycin, 32 µg/mL; with azithromycin, 0.06 µg/mL; with ceftriaxone, ≤ 0.002 µg/mL.
In the case of “Neisseria gonorrhoeae isolate 480 (blaTEM plasmid: no, gyrA: Phe91, Gly95, mtrR promoter: -35delA, parC: Arg87, Glu91, penA: ins345Asp, ponA: Pro421, porB: wild type, rpsJ: Met57, tetM plasmid: no)”, the minimum inhibitory concentration (MIC) is ≤ 0.015 µg/mL in the assay with benzylpenicillin; 0.25 µg/mL with tetracycline; 16 µg/mL in the assay with spectinomycin; 0.25 µg/mL in the assay with azithromycin; ≤ 0.002 µg/mL with ceftriaxone.
Consider “Neisseria gonorrhoeae isolate 136 (blaTEM plasmid: no, gyrA: Phe91, Asn95, mtrR promoter: -35delA, parC: Arg87, Glu91, penA: ins345Asp, ponA: Pro421, porB: wild type, rpsJ: Met57, tetM plasmid: no)”, for which the minimal inhibitory concentration (MIC) in the assay with benzylpenicillin was found to be 0.5 µg/mL; in the assay with tetracycline, 2 µg/mL; in the assay with spectinomycin it was 16 µg/mL; with azithromycin, 0.5 µg/mL; with ceftriaxone it was 0.015 µg/mL.
Take “Neisseria gonorrhoeae isolate 408 (blaTEM plasmid: no, gyrA: wild type, mtrR promoter: wild type, parC: wild type, penA: ins345Asp, ponA: Pro421, porB: wild type, rpsJ: Met57, tetM plasmid: no)”: the MIC in the assay with benzylpenicillin is 0.06 µg/mL; with tetracycline, 0.5 µg/mL; in the assay with spectinomycin, 32 µg/mL; in the assay with azithromycin, 0.015 µg/mL; with ceftriaxone, ≤ 0.002 µg/mL.
The matching figures for “Neisseria gonorrhoeae isolate 290 (blaTEM plasmid: no, gyrA: wild type, mtrR promoter: wild type, parC: wild type, penA: wild type, ponA: wild type, porB: Asn120, Asp121, rpsJ: wild type, tetM plasmid: no)”: ≤ 0.015 µg/mL, 0.25 µg/mL, 32 µg/mL, 0.5 µg/mL and ≤ 0.002 µg/mL.
For “Neisseria gonorrhoeae isolate 472 (blaTEM plasmid: no, gyrA: wild type, mtrR promoter: wild type, parC: wild type, penA: ins345Asp, ponA: wild type, porB: wild type, rpsJ: wild type, tetM plasmid: no)”, the minimum inhibitory concentration (MIC) in the assay with benzylpenicillin was determined as 0.12 µg/mL; with tetracycline, 0.12 µg/mL; in the assay with spectinomycin, 32 µg/mL; in the assay with azithromycin, 0.125 µg/mL; in the assay with ceftriaxone, 0.008 µg/mL.
Consider “Neisseria gonorrhoeae isolate 69 (blaTEM plasmid: no, gyrA: wild type, mtrR promoter: wild type, parC: wild type, penA: ins345Asp, ponA: wild type, porB: wild type, rpsJ: wild type, tetM plasmid: no)”, for which the MIC with benzylpenicillin stood at 0.06 µg/mL; with tetracycline, 0.12 µg/mL; with spectinomycin, 16 µg/mL; with azithromycin it was 0.03 µg/mL; in the assay with ceftriaxone, 0.008 µg/mL.
The matching figures for “Neisseria gonorrhoeae isolate 273 (blaTEM plasmid: no, gyrA: wild type, mtrR promoter: wild type, parC: wild type, penA: ins345Asp, ponA: wild type, porB: Asp120, Ala121, rpsJ: Met57, tetM plasmid: no)”: 1 µg/mL, 2 µg/mL, 32 µg/mL, 0.015 µg/mL and 0.008 µg/mL.
Consider “Neisseria gonorrhoeae isolate 209 (blaTEM plasmid: no, gyrA: Phe91, Asn95, mtrR promoter: -35delA, parC: Arg87, Glu91, penA: ins345Asp, ponA: Pro421, porB: wild type, rpsJ: Met57, tetM plasmid: no)”, for which the minimum inhibitory concentration (MIC) worked out at 1 µg/mL with benzylpenicillin; 1 µg/mL with tetracycline; 32 µg/mL with spectinomycin; 1 µg/mL with azithromycin; 0.015 µg/mL with ceftriaxone.
Turning to “Neisseria gonorrhoeae isolate 42 (blaTEM plasmid: no, gyrA: wild type, mtrR promoter: wild type, parC: wild type, penA: wild type, ponA: wild type, porB: wild type, rpsJ: wild type, tetM plasmid: no)”, the MIC with benzylpenicillin is ≤ 0.015 µg/mL; with tetracycline it was 0.06 µg/mL; with spectinomycin, 8 µg/mL; in the assay with azithromycin, 0.06 µg/mL; with ceftriaxone, ≤ 0.002 µg/mL.
Take “Neisseria gonorrhoeae isolate 289 (blaTEM plasmid: no, gyrA: Thr91, Gly95, mtrR promoter: wild type, parC: wild type, penA: ins345Asp, ponA: wild type, porB: wild type, rpsJ: wild type, tetM plasmid: no)”: the MIC with benzylpenicillin was 0.12 µg/mL; with tetracycline, 0.25 µg/mL; in the assay with spectinomycin, 32 µg/mL; in the assay with azithromycin, 0.06 µg/mL; in the assay with ceftriaxone, ≤ 0.002 µg/mL.
Consider “Neisseria gonorrhoeae isolate 163 (blaTEM plasmid: no, gyrA: Phe91, Asn95, mtrR promoter: -35delA, parC: Arg87, Glu91, penA: ins345Asp, ponA: Pro421, porB: wild type, rpsJ: Met57, tetM plasmid: no)”, for which the MIC in the assay with benzylpenicillin is 0.5 µg/mL; in the assay with tetracycline, 1 µg/mL; with spectinomycin it was 16 µg/mL; with azithromycin it was 0.5 µg/mL; with ceftriaxone, 0.008 µg/mL.
Take “Neisseria gonorrhoeae isolate 312 (blaTEM plasmid: no, gyrA: wild type, mtrR promoter: wild type, parC: wild type, penA: ins345Asp, ponA: wild type, porB: wild type, rpsJ: wild type, tetM plasmid: no)”: the MIC with benzylpenicillin was 0.12 µg/mL; with tetracycline it was 0.12 µg/mL; with spectinomycin, 32 µg/mL; in the assay with azithromycin it was 0.008 µg/mL; with ceftriaxone it was ≤ 0.002 µg/mL.
